# Data from the RNAGym collection of RNA variant scans (doi:10.7554/elife.90254).
# Read counts are not given, so values of variants with three or more changes are uncertain.
# B1: OR4K15 (parent)
# chain: GUUAACGGUCAUAGGCCAUGGAAACUAGGAGCACCAUUUCGCUGCCAGUGAAGAAAUGAACAAAGAAAAUCUGGGCCAGGCAGGCAUCAAAAGAAAUAGUCUUGCGCUCAACCAGAAAGUCUGUAAUCAUUUUAAGGGUA
# Variants of: B1
# Experiment: self-cleavage, relative activity (ratio to wild type); higher = more cleavage; in vitro, sequencing; the parent is a self-cleaving ribozyme
row,Variant,self-cleavage
1,GGCAACGGUCAUAGGCCAUGGAAACCAGGAGCACCAUUUCGCUGCCAGUGAAGACAUGAACAAAGAAAAUCUGGGCCAGGCAGGCAUCAAAAGAAAUAGUCUUGCGCUCAACCAGAAAGUCUGUAAUCAUUUUAAGGGUA [U2G U3C U26C A55C],2.37
2,GUUAACGGUCAUAGGCCAUGGAAACUAGGAGCACCAUUUCGCUGCCAGUGAAGAAAUGAACUAAGAAAAUCUGGGCCAGGCAGGCAUCCAAAGAAAUAGUCUUGUGCUCAACCAGAAAGUCUGUAAUCAUUUUAAGGGUA [A62U A89C C105U],0.28
3,GUUAACGGUCAUAGGCCAUGGAAGCUAGGAGCACCAUUUCGCUGCCAGUGAAGAAAUGAGCAAAGUAAAUCUGGGCCAGGCAGGCAUCAAAAGAAAUAGUCUUGCGCUCAACCAGAAAGUCUGUAAUCAUUUUAAGGGUA [A24G A60G A66U],1.13
4,GUUAACGGUCAUAGGCCAUGGAAACUAGGAGCACCAUUCCGCUGCCAGUGGGGAAAUGAACAAAGGAAAUCUGGGCCAGGCAGGCAUCAAAAGAAAUAGUCUUGCGCUCAACCAGAAAGUCUGUAAUCAUUUUAAGGGUA [U39C A51G A52G A66G],1.45
5,GCUAACGGUCAUAGGACAUGGAAACUAGGAGCACCAUUUCGCUGCCAGUGAAGAGAUGAACAAAGAAAAUCUGGGCCAGGCAGGCAUCAAAAGAAAUAGUCCUGCGCUCAACCAGAAAGUCUGUAAUCGUUUUAAGGGUA [U2C C16A A55G U102C A129G],0.44
6,GUUAAUGGUCAUAGGCCAUGGGAACUAGGAGCACCAUUUCGCUGCCAGUGAAGAAAUGAACAAGGAAAGUCUGGGCCAGGCAGGCAUCAAAAGAAAUAGUCUUGCGCUCAACCAGAAAGUCUGAAAUCAUUUUAAGGGUA [C6U A22G A64G A69G U124A],0.54
7,GUUAACGGUCAUAGGCCAUGGAAACUAGGAGCACCAUUUCGCUGCCAGUGAAGAGAUGAACAAAGAAAAUCUGGGCCAGGCAGGCAUCAAAAGAGAUAGUCUUGCGCCCAACCAGAAAGUCUGUAAUCAUUUUAAGGGUA [A55G A95G U108C],0.01
8,GUUAACGGUCCUAGGCCUUGGAAACUAGGAGCACCAUUUCGCUGCCAGUGAAGAAAUGGACAAAGAAAAUCUGGGCCAGGCAGGCAUCAAAAGAAAUAGUCUUGCGCUCAACCAGAAAGUCUGUAAUCAUUUUAAGGGUA [A11C A18U A59G],2.33
9,GUUAACGGUCAUAGGCCAUGGAAGCUAGGAGCACCAUUUCGCCGCCAGUGAAGAAAUGAACAAAGAAAAUCUGGGCCAGGCAGGUAUCAAAAGAAAUAGUCACGCCCUCAACCAGAAAGUCUGUAAUCAUCUUAAGGGUA [A24G U43C C85U U102A U103C G106C U131C],0
10,GUUAACGGUCAUAGGCCAUGGAAACUAGGAGCACCAUUUUGCUGCCAGUGCAGAAACGAACAAAGAAAAUCUGGGCCAGACAGGCAUCAAAAGAAAUAGUCUUGCGCUCGACCAGAAAGUCUGUAAUCAUUUUAAGGGUA [C40U A51C U57C G80A A110G],0.01
11,GUUAACGGUCAUAGGCCAUGGAAACUAGGAGCACCAUUUCGCUGCCAGUGAAGAAGUGAACAAAGAAAAUCUGGGCCAGGCAGGCAUCAAAAGAAAUAGUCUUGCGCCCAACCAGAAAGCCUGUAAUCAUUUUAAGGGUA [A56G U108C U120C],0.01
12,GUUAACGGUCAUAGGCCAUGGAAACUAGGCGCACCUUUUCGCUGCCAGUGAAGAAAUGAACAAAGAAAAUCUGGGCCAGGCAGGCAUCAAAAGAAAUAGUCUUGCGCUCAACCAGAAAGUCUGUAGUCUUUUUAAGGGUA [A30C A36U A126G A129U],0.48
13,GUUAACGGUCAUAGGCCAUGGAAACUAGGGGCACCAUUUCGCUGCCGGUGAAGAAAUGAACAAAGAAAUUCUGGGCCAGGCAGGCAUCAAAGGAAAUAGUCUUGCGCUCAACCAGAAAGUCUGUAAUCAUUUUAGGGGUA [A30G A47G A69U A92G A135G],1.48
14,GUUAACGGUCAUAGGCCAUGGAGACUAGGAGCACCAUUUCGCCGCCAGUGAAGGAAUGAACAAAGAAAAUCUGGGCCAGGCAGGCGUCAAAAGAGAUAGUCUUGCGCUCAGCCAGAAAGUCUGUAAUCAUUUUAAGGGUA [A23G U43C A54G A86G A95G A111G],0.03
15,GUAAACGGUCAUGGGCCAUGGAAACUAGGAGCACCAUUUCGCUGCCAGUGAAGAAAUGAACAAAGAAAAUCUGGGCCAGGCAGGCAUCAAAAGGAAUAGUCUUGCGCUCAACCAGAAAGUCUGUAAUCAUUUUAAGGGUA [U3A A13G A94G],0.76
16,GUUAACGGUCAUAGGCCAUGGAAACUAGGAGCACCAUUUCGCUGCCAGUGAAGAAAUGAACAAAGAAAAUCUGGGCCAGGCAAGCAUCAAGAGAAAUAGUCUCGCGCUCAACCAGAAAGUCUGUAAUCAUUUUAAGGGUA [G83A A91G U103C],0.15
17,GUUAACGGUCAUAGGCCAUGGAAACUAGGAGCACCAUUUCGCUGCCAGUGAAGAAGUGAACAAAGAAAAUCUGGGCCAGGCAGGCAUCAAAGGAAAUAGUCUUGCGCCCAACCAGAAAGUCUGUAAUCAUUUUAAGGGUA [A56G A92G U108C],0
18,GUUAACGGUCAUAGGCCAUGGAAACUAGGGGCGCCAUUUCGCUGCCAGUGAAGAGAUGAACAAAGAAAAUCUGGGCCAGGCAGGCAUCAAAAGAAAUAGUCUUGCGCUCAACCAGAAAGUCUGUAAUCAUUUUAAGGGUA [A30G A33G A55G],0.94
19,GUUAACGGUCAUAGGCCAUGGAAACUAGGAGCACCAUUUCGCUGCCAGCGAAGAAAUGAACAAAGAAAAUCUGGGCCUGGCAGGCAUCAAAAGAAAUAGUCUUGCGCUCAACCAGAGAGUCUGUAAUCAUUUUAAGGGUA [U49C A78U A117G],0.24
20,GUUAACGGUCAUAGGCCAUGGAAACUAGGAGCACCAUUUCGCUGCCAGUGAAGAGAUGAACAAAGAAAUUCUGGGCCAGGCUGGCAUCAAAAGAGAUAGUCUUGCGCUCAACCAGAAAGUCUGUAUUCAUUUUAAGGGUA [A55G A69U A82U A95G A126U],0.29
21,GCCAACGGUCAUAGGCCAUGGAAACUAGGAGCACCAUUCCGCUGCCAGUGAAGAAAUGAACAAAGAAAAUCUGGGCCAGGCAGGCAUCAAAAGAAAUAGUCUUGCGCUCAACCAGAAAGUCUGUAAUCAUUUUAAGGGUA [U2C U3C U39C],1.03

row,Variant,self-cleavage
1,GUUAGCGGUCAUAGGCCAUGGAAACUAGGAGCACCAUUUCGCUGCCAGUGAAGAAAUGAACAAAGAAAAUCUGGCCCAGGCAGGCAUCAAAAGAAAUAGUCUUGCGCUCAACCGGAAAGUCUGUAAUCAUUUUAAGGGUA [A5G G75C A114G],0.15
2,GUUAACGGUCAUAGGCCAUGGAGACUAGGAGCACCAUUUCGCUGCCUGUGAAGAAAUGAACAAAGAAAAUCUGGGCCAGGCAGGCACCAAGAGAAAUAGUCUUGCGCUCAACCAGAAAGUCUGUAAUCAUCUUAAGGGUA [A23G A47U U87C A91G U131C],0.22
3,GUUAACGGUCAUAGGCCAUGGAAACUAGGAGCACCAUCUCGCUGCCAGUGAAGAAAUGACCAAAGAAAAUCAGGGCCAGGCAGGCAUCAAAAGAAAUAGUCUUGCGCUCAACCAGAAUGUCUGUAUUCCUUUUAAGGGUA [U38C A60C U72A A118U A126U A129C],0.02
4,GUUAUCGGUCAUAGGCCAUGGAAACUAGGAGCACCAUUUCGCUGCCAGUGAAGAAAUGAGCAAAGAAAAUCUGGGCCAGGCAGGCAUCAAAGGAAAUAGUCUUGCGCUCAGCCAGAAAGUCUGUAAUCAUUUUAAGGGUA [A5U A60G A92G A111G],0.1
5,GUUAACGGUCAUAGGCCAUGGAAACUAGGAGCACCAUUUCGGUGCCAGUGAAGAAACGAACAAAGAAAAUCUGGGCCAGGCAGGCAUCAAAAGAAAUAGUCUUGCGCUCGACCAGAAAGUCUGUAAUCAUUUUAAGGGUA [C42G U57C A110G],0.09
6,GUUAACGGUCAUAGGCCAAGGAAACUGGGAGCACCGUUUCGCUGCCAGUGAAGAAAUGAACAAAGAAAAUCUGGGCCAGGCAGGCAUCAAAAGAAAUAGUCUUGCGCUCAACCAGAAAGUCUGUAAUCAUUUUAAGGGUA [U19A A27G A36G],1.23
7,GUUAACGGUCAUAGGCCAUGGAAACUAGGAGCACCGUUUCGCUGCCAGUGUAGAGUUGAACAAAGAAAAUCUGGGCCAGGCAGGCAUCAAAAGAAAUAGUCUUGCGCUCAACCAGAAAGUCUGUAAUCACUUUAAGGGUA [A36G A51U A55G A56U U130C],0.81
8,GUUAGCGGUCAUAGGCCAUGGAAACUAGGAGCACCAUUUCGCUGCCAGCGAAGAAAUGAACAAAGAAAAUCUGGGCCAGGCAGGCAUCAAAAGAAAUAGUCUUGCGCUCAACCAGAAAGUCUGUAAUCAUUUCAAGGGUA [A5G U49C U133C],1.24
9,GUUAGCGGUCAUAGGCCAUGGAAACUAGGAGCACCAUUUCGCUGCUAGUGAAGAAAUGGACAAAGAAAAUCUGGGCCAGGCAGGCAUCAAAAGAAAUAGUCUUGCGCCCAACCAGAAAGUCUGUAAUCAUUUUAAGGGUA [A5G C46U A59G U108C],0.02
10,GUUAACGGUCAUAGGCCAUGGAAACUAGGAGCACCAUUUAGCCGCCAGUGAGGAAAUGAACAAAGAAAAUCUGGGCCAGGCGGGCAUCAAAAGAAAUAGUCUUGCGCCCGACCAGAAAGCCUGUAAUCAUUUUAAGGGUA [C40A U43C A52G A82G U108C A110G U120C],0.01
11,GUUAACGGUCAUAGGCCAUGGAGACCAGGAGCGCCAUUUCGCUGCCAGUGAAGAAAUGAACAAAGAAAAUCUGGGCCAGGCAGGCACCAGAAGAAAUAGUCUUGCGCUCAACCAGAAAGUCUGUAAUCAUUUUAAGGGUA [A23G U26C A33G U87C A90G],0.06
12,GUUAACGGUCAUAGGCCAUGGAAACUAGGAGCACCAUUUCGCUGCCAGUGAAGAAAUGAACAAAGAAAACCUGGGCCAGGCAGGCAUCAAAAGAAAUAGUCUUGCGCUCAACCAGAGAGUCUGUAACCAUUUUAAGGGUA [U70C A117G U127C],0.82
13,GUUAACGGUCAUAGGCCAUGGAAACUAGGAGCACCAAUUCGCUGCCAGUGAAGGAAUGAACAAAGAAAAUCUGGGCCAGGCAGGCAUCAAAAGAAAUAGUCUUGCGCUCAACCAGAAAGUCUGUAAUCGUUUUAAGGGUA [U37A A54G A129G],1.22
14,GUUAACGGUCAUAGGCCAUGGAAACUAGGAGCACCAUUUCGCUGCCAGUGAAGAAAUGAACGAAGAAAAUCUGGGCCAGGCAGGCGUCAAAAGAAAUAGUCUUGCGCUCAACCAGAAAGUCCGUAAUCAUUUUAAGGGUA [A62G A86G U122C],1.71
15,GUUAACGGCCAUAGGCCAUGGAAACUAGGAGCACCACUUCGCUGCCAGUGAAGAAAUGAACAGAGAAAAUCUGGGCCAGGCAGGCAUCAAAAGAAAUAGUCUUGCGCUCAACCAGAAAGUCUGUAAUCAUUCUAAGGGUA [U9C U37C A63G U132C],2.62
16,GUUAACGGUCAUAGGCCAUGGAAACUAGGAGCACCAUUUCGCUGCCAGUGAGGAAAUGAACAAAGAAAAACUGGGCCAGGCAGGCAUCAAAAGAAAUAGUCUUGCGCUCAACCAGACAGUCUGUAAUCAUUUUAAGGGUA [A52G U70A A117C],0.16
17,GUUAACGGUCAUAGGCCAUGGAAACUAGGAGCACCAUUUCGCUGCCAGUGAAGAAAUGAGCAAAGAUAAUCUGGGCCAGGCAGGCAUCAAAAGAAAUAGUCUUGCGCUCAACCAGAAAGACUGUAAUCAUUUUAAGGGUA [A60G A67U U120A],0.8
18,GUUAACGGUCAUAGGCCAUGGAAACUAGGAGCACCAUUUCGCUGCCAGUGAAGAAAUGUACAAAGAAAAACUGGGCCAGGCAGGCAUCAAAAGAAAUAGUCUUGCGCUCAACCAGAAAGUCCGUAAUCAUUUUAAGGGUA [A59U U70A U122C],0.63
19,GUUAACGGUCAUAGGCCACGGAAACUAGGAGCACCAUUUCGCUGCCAGUGAAGAAAUGAACAAAGAAAAUCUGGGCCGGGCAGGCAUCAAAAGGAAUAGUCUUGCGCUCAACCAGAAAGUCUGUAAUCAUUUUAAGGGUA [U19C A78G A94G],0.29
20,GUUAACGGUCAUAGGCCAUGGAGACUAGGAGCACCAUUUCGCUGCCAGUGAAGAAAUGAACAAAGAAAAUCUGGGCCAGGCAGGCAUCAGAAGAAAUAGUCUUGCGCUCAACCAGAAAGUCCGUAAUCAUUUUAAGGGUA [A23G A90G U122C],0.74
